Source: article PMC11736144, “A sleepy cannabis constituent: cannabinol and its active metabolite influence sleep architecture in rats” (Neuropsychopharmacology, 2024)

Assay: Solubility in dosing vehicle
Details: 1:1:18 ethanol, Tween 80, 0.9% saline; 5 ml/kg; doses of 30 mg/kg and 100 mg/kg

CCCCCc1cc(O)c2c(c1)OC(C)(C)c1ccc(C)cc1-2 [CBN, cannabinol]
solubility in vehicle at the required volumes: insoluble
